# Laboratory results as given in PubChem BioAssay (NCATS).
# This list was built around the results that the source calls inconclusive (neither active nor inactive); the mix of calls is not that of the screen. Potencies of inconclusive entries are left out as doubtful fits. For part of these data: “Side channel” marks fits to a control or component signal instead of the main read-out. Activity calls are given as the source filed them. Unless noted, calls follow the shape of the dose curve; as a rule, active = well fitted activation curve with a large enough effect; inconclusive = small, poorly fitted or top-dose-only effect, or effect the other way; inactive = flat fitted curve, though single readings scatter.
# Assay: qHTS Assay for Identification of Small Molecule Antagonists for NFkB Signaling Pathway (AID 895; active = well fitted inhibition curve with a large enough effect in the signal ratio, with a control signal flat, not every such curve was filed as active; inconclusive = small, poorly fitted or top-dose-only effect, or effect the other way, or a change in a side signal; the % refers to the signal ratio)
# Conditions: NFkB beta-lactamase reporter cells, FRET ratio 460/530, stimulated with 10 pM TNF alpha; activity change, negative = inhibition: at 38.3 µM (top of the series)
# Outline: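 NFkB-bla ME-180 cervical carcinoma cells with beta-lactamase reporter under NFkB response element; compounds added, then TNF alpha at 10 pM final (EC50), 5 h at 37 C. LiveBLAzer substrate 2 h, room temperature; emission 460/530 nm at 405 nm excitation.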
# % is scaled to controls: 0 for no effect and ±100 for the full control effect; potency is read from the fitted curve at half-maximal effect; tags tell the direction and shape of the fitted curve or compound fluorescence and quenching.
Compound,"activity change, negative = inhibition",Potency
C[C@](N)(Cc1ccc(O)c(O)c1)C(=O)O,inactive: 10.8%,
NC(=O)C(=O)O,inconclusive: -37%,
O=C(O)c1cc(=O)c2c(Cl)cc(Cl)cc2[nH]1,inactive: 14.8%,
O=C(O)c1ccccc1Nc1ccccc1,,"inconclusive [inhibitor, full curve]"
NCCCS(=O)(=O)O,inconclusive: -32.7%,
COc1ccc(Cl)cc1C(=O)NCCc1ccc(S(=O)(=O)NC(=O)NC2CCCCC2)cc1,inconclusive: -43.5%,
CC(C)Cc1ccc([C@H](C)C(=O)O)cc1,inconclusive: -32.8%,
N=C(N)SCCc1cnc[nH]1,inconclusive: 4.5%,
Nc1nc2ccc(OC(F)(F)F)cc2s1,,"inconclusive [inhibitor, partial curve, poor fit]"
O=C1NC(=O)C(c2ccccc2[N+](=O)[O-])=C1Nc1ccc(O)c(Cl)c1,,"inconclusive [inhibitor, partial curve]"
Nc1c(S(=O)(=O)O)cc(Nc2ccc(Nc3nc(Cl)nc(Nc4ccc(S(=O)(=O)O)cc4)n3)c(S(=O)(=O)O)c2)c2c1C(=O)c1ccccc1C2=O,,"inconclusive [activator, single point]"
O=C(O)CN(CCOCCOCCN(CC(=O)O)CC(=O)O)CC(=O)O,inactive: -5.33%,
O=NN(CCCl)C(=O)NCCCl,inconclusive: -14.1%,
CC1=C(CC(=O)O)c2cc(F)ccc2/C1=C\c1ccc(S(C)=O)cc1 (stereo not drawn),inconclusive: -25.3%,
Cc1[nH]c(=O)c(C#N)cc1-c1ccc2nccn2c1,,"inconclusive [activator, full curve, poor fit]"
Nc1ccc(-c2ccc3ccccc3n2)cc1,inactive: -29.2%,
O=c1c(-c2ccc(O)cc2)coc2cc(O)ccc12,,"inconclusive [activator, partial curve, poor fit]"

Compound,"activity change, negative = inhibition",Potency
N#C/C(=C\c1ccc(O)c(O)c1)C(=O)c1ccc(O)c(O)c1,inactive: -8.59%,
CCN1/C(=C/C(C)=O)Sc2ccc(OC)cc21,,"inconclusive [inhibitor, full curve]"
Cc1c(OCC(F)(F)F)ccnc1CS(=O)c1nc2ccccc2[nH]1 (stereo not drawn),inconclusive: 23.2%,
Cc1cc(C(C)(C)C)c(O)c(C)c1CC1=NCCN1,inconclusive: -15.8%,
CC(C)Cc1ccc(C(C)C(=O)O)cc1 (stereo not drawn),,"inconclusive [inhibitor, full curve]"
O=Nc1c(-c2c(O)[nH]c3cc(Br)ccc23)[nH]c2ccccc12,,"inconclusive [cytotoxic, side channel, full curve]"
COc1ccc2cc([C@H](C)C(=O)O)ccc2c1,inactive: -11.3%,
COc1cccc(-c2cc(=O)c3ccccc3o2)c1N,inactive: 23.9%,
CCC1(c2ccccc2)C(=O)NCNC1=O,inactive: 19.1%,
Cc1[nH]c(=O)c(C#N)cc1-c1ccncc1,inconclusive: -0.534%,
CCN(CC)C(=S)SSC(=S)N(CC)CC,,active: 7080 nM
CC(=O)Oc1ccccc1C(=O)O,inconclusive: 19.7%,
S=C(Nc1ccccc1)Nc1nccs1,,"inconclusive [inhibitor, full curve, poor fit]"
O=C(O)/C=C/c1ccc(O)c(O)c1,,"inconclusive [activator, full curve, poor fit]"
NCCSSCCN,inactive: -19.1%,
CCCCCCCCCCCCCCCC(=O)NCCO,,"inconclusive [side channel, rising, single point]"
NCCCNCCSP(=O)(O)O,inconclusive: -12.4%,

# Assay: qHTS Assay for Identification of Small Molecule Agonists for Thrombopoietin (TPO) Signaling Pathway (AID 917)
# Conditions: TPO signaling pathway reporter cells, agonist qHTS, stimulated with TPO at its EC50; series mostly up to 38.5 µM; activity, positive = activation: at the top concentration
# Outline: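 Cell-based luciferase reporter screen. Mouse Ba/F3 line stably expressing human TPO receptor; IL-3 removed overnight before plating. Co-treatment with compound and EC50 TPO (26 pM), 24 hrs at 37 C, then luminescence.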
Compound,Potency,"activity, positive = activation"
NCCCS(=O)(=O)O,"inconclusive [inhibitor, partial curve]",
N=C(N)SCCc1cnc[nH]1,"inconclusive [inhibitor, partial curve]",
O=C1NC(=O)C(c2ccccc2[N+](=O)[O-])=C1Nc1ccc(O)c(Cl)c1,"inconclusive [inhibitor, partial curve, poor fit]",
Nc1c(S(=O)(=O)O)cc(Nc2ccc(Nc3nc(Cl)nc(Nc4ccc(S(=O)(=O)O)cc4)n3)c(S(=O)(=O)O)c2)c2c1C(=O)c1ccccc1C2=O,"inconclusive [inhibitor, full curve, poor fit]",
Nc1ccc(-c2ccc3ccccc3n2)cc1,"inconclusive [activator, full curve]",
O=c1c(-c2ccc(O)cc2)coc2cc(O)ccc12,"inconclusive [activator, full curve]",
N#C/C(=C\c1ccc(O)c(O)c1)C(=O)c1ccc(O)c(O)c1,"inconclusive [inhibitor, single point]",
CCN1/C(=C/C(C)=O)Sc2ccc(OC)cc21,"inconclusive [inhibitor, partial curve, poor fit]",
O=Nc1c(-c2c(O)[nH]c3cc(Br)ccc23)[nH]c2ccccc12,active: 251 nM,
COc1cccc(-c2cc(=O)c3ccccc3o2)c1N,active: 398 nM,
CCN(CC)C(=S)SSC(=S)N(CC)CC,"inconclusive [inhibitor, full curve]",
S=C(Nc1ccccc1)Nc1nccs1,"inconclusive [inhibitor, partial curve]",
O=C(O)/C=C/c1ccc(O)c(O)c1,,inactive: -27.4%
NCCSSCCN,"inconclusive [inhibitor, single point]",
